# Measurements as given in the supplement of paper PMC8728848.
# This is one part of the list.
# B1: IRP60A (Homo sapiens), Q9UGN4 (protein)
# chain: MWLPWALLLLWVPGCFALSKCRTVAGPVGGSLSVQCPYEKEHRTLNKYWCRPPQIFLCDKIVETKGSAGKRNGRVSIRDSPANLSFTVTLENLTEEDAGTYWCGVDTPWLRDFHDPVVEVEVSVFPASTSMTPASITAAKTSTITTAFPPVSSTTLFAVGATHSASIQEETEEVVNSQLPLLLSLLALLLLLLVGASLLAWRMFQKWIKAGDHSELSQNPKQAATQSELHYANLELLMWPLQEKPAPPREVEVEYSTVASPREELHYASVVFDSNTNRIAAQRPREEEPDSDYSVIRKT
# Legend:
# Experiment in all cases: glycan array binding signal (z-score within array); higher = stronger binding
# Conditions in all cases: glycan notation: IUPAC condensed, linker removed
# Fuc(a1-2)Gal = target: Fuc(a1-2)Gal
# Outline: (§1)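 Glycan array data came from 3228 arrays in the Consortium for Functional Glycomics database, and only arrays with an available protein sequence were kept. Glycan names were put into IUPAC-condensed notation, and columns mapping to the same glycan were averaged. The binding signal is a within-array Z-score, averaged across arrays of one protein sequence run at different concentrations or buffers and across linkers. A negative Z-score can be read as non-binding.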
# Fuc(a1-2)Gal(b1-3)GalNAc = target: Fuc(a1-2)Gal(b1-3)GalNAc
# Outline: as §1
# [1] = target: Fuc(a1-2)Gal(b1-3)GalNAc(b1-3)Gal
# Outline: as §1
# [2] = target: Fuc(a1-2)Gal(b1-3)GalNAc(b1-3)Gal(a1-4)Gal(b1-4)Glc
# Outline: as §1
# [3] = target: Fuc(a1-2)Gal(b1-3)GalNAc(b1-4)[Neu5Ac(a2-3)]Gal(b1-4)Glc
# Outline: as §1
# Fuc(a1-2)Gal(b1-3)GlcNAc = target: Fuc(a1-2)Gal(b1-3)GlcNAc
# Outline: as §1
# [4] = target: Fuc(a1-2)Gal(b1-3)[Fuc(a1-4)]GlcNAc
# Outline: as §1
# Fuc(a1-2)Gal(b1-4)Glc = target: Fuc(a1-2)Gal(b1-4)Glc
# Outline: as §1
# Fuc(a1-2)Gal(b1-4)GlcNAc = target: Fuc(a1-2)Gal(b1-4)GlcNAc
# Outline: as §1
# [5] = target: Fuc(a1-2)Gal(b1-4)GlcNAc(b1-3)Gal(b1-4)GlcNAc
# Outline: as §1
# [6] = target: Fuc(a1-2)Gal(b1-4)GlcNAc(b1-3)Gal(b1-4)GlcNAc(b1-3)Gal(b1-4)GlcNAc
# Outline: as §1
# [7] = target: Fuc(a1-2)Gal(b1-4)[Fuc(a1-3)]GlcNAc
# Outline: as §1
# Fuc(a1-2)GlcNAc = target: Fuc(a1-2)GlcNAc
# Outline: as §1
# Fuc(a1-2)[Gal(a1-3)]Gal = target: Fuc(a1-2)[Gal(a1-3)]Gal
# Outline: as §1
# [8] = target: Fuc(a1-2)[Gal(a1-3)]Gal(b1-4)GlcNAc
# Outline: as §1
# [9] = target: Fuc(a1-2)[Gal(a1-4)]Gal(b1-4)GlcNAc
# Outline: as §1
# [10] = target: Fuc(a1-2)[GalNAc(a1-3)]Gal
# Outline: as §1
# [11] = target: Fuc(a1-2)[GalNAc(a1-3)]Gal(b1-4)GlcNAc
# Outline: as §1
# [12] = target: Fuc(a1-2)[GalNAc(a1-4)]Gal(b1-4)GlcNAc
# Outline: as §1
# [13] = target: Fuc(a1-2)[GalNAc(b1-3)]Gal
# Outline: as §1
# Fuc(a1-3)GlcNAc = target: Fuc(a1-3)GlcNAc
# Outline: as §1
# [14] = target: Fuc(a1-3)[Gal(b1-4)]GlcNAc
# Outline: as §1
# [15] = target: Fuc(a1-3)[Gal(b1-4)]GlcNAc(b1-3)Gal(b1-4)[Fuc(a1-3)]GlcNAc
# Outline: as §1
# [16] = target: Fuc(a1-3)[Gal(b1-4)]GlcNAc(b1-3)Gal(b1-4)[Fuc(a1-3)]GlcNAc(b1-3)Gal(b1-4)[Fuc(a1-3)]GlcNAc
# Outline: as §1
# [17] = target: Fuc(a1-3)[Gal3S(b1-4)]GlcNAc
# Outline: as §1
# Fuc(b1-3)GlcNAc = target: Fuc(b1-3)GlcNAc
# Outline: as §1
# Gal(a1-2)Gal = target: Gal(a1-2)Gal
# Outline: as §1
# Gal(a1-3)Gal = target: Gal(a1-3)Gal
# Outline: as §1
# Gal(a1-3)Gal(b1-4)Glc = target: Gal(a1-3)Gal(b1-4)Glc
# Outline: as §1
# Gal(a1-3)Gal(b1-4)GlcNAc = target: Gal(a1-3)Gal(b1-4)GlcNAc
# Outline: as §1
# [18] = target: Gal(a1-3)Gal(b1-4)[Fuc(a1-3)]GlcNAc
# Outline: as §1
# Gal(a1-3)GalNAc = target: Gal(a1-3)GalNAc
# Outline: as §1
# [19] = target: Gal(a1-3)[Gal(a1-4)]Gal(b1-4)GlcNAc
# Outline: as §1
# Gal(a1-4)Gal(b1-4)Glc = target: Gal(a1-4)Gal(b1-4)Glc
# Outline: as §1
# Gal(a1-4)Gal(b1-4)GlcNAc = target: Gal(a1-4)Gal(b1-4)GlcNAc
# Outline: as §1
# Gal(a1-4)GlcNAc = target: Gal(a1-4)GlcNAc
# Outline: as §1
# Gal(a1-6)Glc = target: Gal(a1-6)Glc
# Outline: as §1
# Gal(b1-2)Gal = target: Gal(b1-2)Gal
# Outline: as §1
# Gal(b1-3)Gal = target: Gal(b1-3)Gal
# Outline: as §1
# Gal(b1-3)GalNAc = target: Gal(b1-3)GalNAc
# Outline: as §1
# [20] = target: Gal(b1-3)GalNAc(b1-4)Gal(b1-4)Glc
# Outline: as §1
# [21] = target: Gal(b1-3)GalNAc(b1-4)[Neu5Ac(a2-3)]Gal(b1-4)Glc
# Outline: as §1
# Gal(b1-3)GlcNAc = target: Gal(b1-3)GlcNAc
# Outline: as §1
# [22] = target: Gal(b1-3)GlcNAc(b1-3)Gal(b1-4)Glc
# Outline: as §1
# [23] = target: Gal(b1-3)[Fuc(a1-4)]GlcNAc
# Outline: as §1
# [24] = target: Gal(b1-3)[GlcNAc(b1-6)]GalNAc
# Outline: as §1
# [25] = target: Gal(b1-3)[Neu5Ac(a2-6)]GalNAc
# Outline: as §1
# [26] = target: Gal(b1-3)[Neu5Ac(a2-6)]GlcNAc(b1-4)Gal(b1-4)Glc
# Outline: as §1
# [27] = target: Gal(b1-3)[Neu5Ac(b2-6)]GalNAc
# Outline: as §1
# [28] = target: Gal(b1-4)GalNAc(a1-3)[Fuc(a1-2)]Gal(b1-4)GlcNAc
# Outline: as §1
# Gal(b1-4)Glc = target: Gal(b1-4)Glc
# Outline: as §1
# Gal(b1-4)Glc6S = target: Gal(b1-4)Glc6S
# Outline: as §1
# Gal(b1-4)GlcNAc = target: Gal(b1-4)GlcNAc
# Outline: as §1
# [29] = target: Gal(b1-4)GlcNAc(b1-3)Gal(b1-4)Glc
# Outline: as §1
# [30] = target: Gal(b1-4)GlcNAc(b1-3)Gal(b1-4)GlcNAc
# Outline: as §1
# [31] = target: Gal(b1-4)GlcNAc(b1-3)Gal(b1-4)GlcNAc(b1-3)Gal(b1-4)GlcNAc
# Outline: as §1
# [32] = target: Gal(b1-4)GlcNAc(b1-3)Gal(b1-4)[Fuc(a1-3)]GlcNAc(b1-3)Gal(b1-4)[Fuc(a1-3)]GlcNAc
# Outline: as §1
# [33] = target: Gal(b1-4)GlcNAc(b1-3)GalNAc
# Outline: as §1
# [34] = target: Gal(b1-4)GlcNAc(b1-3)[Gal(b1-4)GlcNAc(b1-6)]GalNAc
# Outline: as §1
# [35] = target: Gal(b1-4)GlcNAc(b1-6)GalNAc
# Outline: as §1
# [36] = target: Gal(b1-4)GlcNAc(b1-6)[Gal(b1-3)]GalNAc
# Outline: as §1
# Gal3S(b1-3)GalNAc = target: Gal3S(b1-3)GalNAc
# Outline: as §1
# Gal3S(b1-3)GlcNAc = target: Gal3S(b1-3)GlcNAc
# Outline: as §1
# [37] = target: Gal3S(b1-3)[Fuc(a1-4)]GlcNAc
# Outline: as §1
# Gal3S(b1-4)Glc = target: Gal3S(b1-4)Glc
# Outline: as §1
# Gal3S(b1-4)Glc6S = target: Gal3S(b1-4)Glc6S
# Outline: as §1
# Gal3S(b1-4)GlcNAc = target: Gal3S(b1-4)GlcNAc
# Outline: as §1
# Gal4S(b1-4)GlcNAc = target: Gal4S(b1-4)GlcNAc
# Outline: as §1
# Gal6S(b1-4)Glc = target: Gal6S(b1-4)Glc
# Outline: as §1
# Gal6S(b1-4)Glc6S = target: Gal6S(b1-4)Glc6S
# Outline: as §1
# GalNAc(a1-3)Gal = target: GalNAc(a1-3)Gal
# Outline: as §1
# GalNAc(a1-3)GalNAc = target: GalNAc(a1-3)GalNAc
# Outline: as §1
binder,measurement,setting,value
B1,glycan array binding signal (z-score),Fuc(a1-2)Gal,0.125
same,glycan array binding signal (z-score),Fuc(a1-2)Gal(b1-3)GalNAc,-0.123
same,glycan array binding signal (z-score),[1],-0.387
same,glycan array binding signal (z-score),[2],0.012
same,glycan array binding signal (z-score),[3],-0.364
same,glycan array binding signal (z-score),Fuc(a1-2)Gal(b1-3)GlcNAc,-0.155
same,glycan array binding signal (z-score),[4],-0.215
same,glycan array binding signal (z-score),Fuc(a1-2)Gal(b1-4)Glc,-0.053
same,glycan array binding signal (z-score),Fuc(a1-2)Gal(b1-4)GlcNAc,0.348
same,glycan array binding signal (z-score),[5],-0.394
same,glycan array binding signal (z-score),[6],-0.378
same,glycan array binding signal (z-score),[7],-0.173
same,glycan array binding signal (z-score),Fuc(a1-2)GlcNAc,0.11
same,glycan array binding signal (z-score),Fuc(a1-2)[Gal(a1-3)]Gal,-0.301
same,glycan array binding signal (z-score),[8],-0.266
same,glycan array binding signal (z-score),[9],-0.153
same,glycan array binding signal (z-score),[10],-0.282
same,glycan array binding signal (z-score),[11],0.381
same,glycan array binding signal (z-score),[12],-0.223
same,glycan array binding signal (z-score),[13],-0.31
same,glycan array binding signal (z-score),Fuc(a1-3)GlcNAc,0.257
same,glycan array binding signal (z-score),[14],-0.209
same,glycan array binding signal (z-score),[15],-0.341
same,glycan array binding signal (z-score),[16],-0.448
same,glycan array binding signal (z-score),[17],-0.025
same,glycan array binding signal (z-score),Fuc(b1-3)GlcNAc,1.57
same,glycan array binding signal (z-score),Gal(a1-2)Gal,-0.38
same,glycan array binding signal (z-score),Gal(a1-3)Gal,-0.304
same,glycan array binding signal (z-score),Gal(a1-3)Gal(b1-4)Glc,-0.419
same,glycan array binding signal (z-score),Gal(a1-3)Gal(b1-4)GlcNAc,-0.257
same,glycan array binding signal (z-score),[18],-0.104
same,glycan array binding signal (z-score),Gal(a1-3)GalNAc,0.334
same,glycan array binding signal (z-score),[19],-0.246
same,glycan array binding signal (z-score),Gal(a1-4)Gal(b1-4)Glc,-0.339
same,glycan array binding signal (z-score),Gal(a1-4)Gal(b1-4)GlcNAc,-0.116
same,glycan array binding signal (z-score),Gal(a1-4)GlcNAc,0.125
same,glycan array binding signal (z-score),Gal(a1-6)Glc,-0.296
same,glycan array binding signal (z-score),Gal(b1-2)Gal,-0.31
same,glycan array binding signal (z-score),Gal(b1-3)Gal,-0.058
same,glycan array binding signal (z-score),Gal(b1-3)GalNAc,-0.193
same,glycan array binding signal (z-score),[20],-0.487
same,glycan array binding signal (z-score),[21],-0.404
same,glycan array binding signal (z-score),Gal(b1-3)GlcNAc,0.07
same,glycan array binding signal (z-score),[22],-0.335
same,glycan array binding signal (z-score),[23],-0.208
same,glycan array binding signal (z-score),[24],-0.31
same,glycan array binding signal (z-score),[25],-0.296
same,glycan array binding signal (z-score),[26],-0.419
same,glycan array binding signal (z-score),[27],-0.232
same,glycan array binding signal (z-score),[28],0.124
same,glycan array binding signal (z-score),Gal(b1-4)Glc,-0.043
same,glycan array binding signal (z-score),Gal(b1-4)Glc6S,-0.384
same,glycan array binding signal (z-score),Gal(b1-4)GlcNAc,-0.097
same,glycan array binding signal (z-score),[29],-0.351
same,glycan array binding signal (z-score),[30],-0.308
same,glycan array binding signal (z-score),[31],-0.41
same,glycan array binding signal (z-score),[32],-0.375
same,glycan array binding signal (z-score),[33],-0.171
same,glycan array binding signal (z-score),[34],-0.426
same,glycan array binding signal (z-score),[35],-0.384
same,glycan array binding signal (z-score),[36],-0.276
same,glycan array binding signal (z-score),Gal3S(b1-3)GalNAc,0.015
same,glycan array binding signal (z-score),Gal3S(b1-3)GlcNAc,0.064
same,glycan array binding signal (z-score),[37],-0.372
same,glycan array binding signal (z-score),Gal3S(b1-4)Glc,-0.329
same,glycan array binding signal (z-score),Gal3S(b1-4)Glc6S,-0.172
same,glycan array binding signal (z-score),Gal3S(b1-4)GlcNAc,0.268
same,glycan array binding signal (z-score),Gal4S(b1-4)GlcNAc,0.155
same,glycan array binding signal (z-score),Gal6S(b1-4)Glc,-0.24
same,glycan array binding signal (z-score),Gal6S(b1-4)Glc6S,0
same,glycan array binding signal (z-score),GalNAc(a1-3)Gal,6.44
same,glycan array binding signal (z-score),GalNAc(a1-3)GalNAc,0.291
